Source: PubChem BioAssay AID743279 (National Center for Advancing Translational Sciences (NCATS), 2014)
The campaign covered roughly 360,000 compounds. About 17,000 (4.7%) were called active. This list was built around the results that the source calls inconclusive (neither active nor inactive); the mix of calls is not that of the screen. Rule as the data show it: active = activity change below about -50%; inconclusive = mostly about -30% to -49%; inactive = weaker than that.

Assay: qHTS for Inhibitors of Inflammasome Signaling: IL-1-beta AlphaLISA Primary Screen
Conditions: THP-1 LPS/ATP IL-1B secretion, 16 h; at 57.5 µM, active compounds read low
How it was run: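 THP-1 cells pretreated 1 hr with compounds (up to 57.5 uM final), then stimulated with LPS (250 ng/mL final) plus ATP (1.25 mM final); secreted IL-1B measured by AlphaLISA after 16 hr, decreased signal indicating inhibition.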
% is scaled to controls: 0 for no effect and ±100 for the full control effect.

| Structure (SMILES) | activity change |
| --- | --- |
| Cc1ccc(S(=O)(=O)N2CCOC2CNC(=O)C(=O)NCc2cccnc2)cc1 (stereo not given) | inactive: 3.87% |
| O=C(NCc1ccc(Cl)c(Cl)c1)c1ccco1 | inactive: -4.14% |
| Cc1c(Cc2ccccc2)c(=O)oc2cc(O)cc(O)c12 | inconclusive: -39.7% |
| O=C(/C=C/Sc1ccc(C(F)(F)F)cn1)c1ccccc1 | inconclusive: -39.7% |
| CC1(C)CC(=O)CC2(C1)NCC(c1ccccc1Cl)c1c2[nH]c2ccccc12 (stereo not given) | inconclusive: -42.1% |
| CN(C(=O)/C=C/c1ccc(F)cc1)C1CCCCC1 | inconclusive: -49.2% |
| Cc1cc(Nc2ccc3c(c2)OCCO3)c2cccc(C)c2n1 | active: -93.7% |
| O=C(Nc1ccccc1)OCC(CN1CCCCC1)OC(=O)Nc1ccccc1 (stereo not given) | inconclusive: -41.8% |
| COc1ccc(Br)cc1C(=O)Nc1ccc(Cc2ccncc2)cc1 | inconclusive: -42.4% |
| COc1cccc(NC(=O)N(Cc2cc3cc(C)cc(C)c3[nH]c2=O)CC2COCCO2)c1 (stereo not given) | inconclusive: -37.7% |
| COc1cn(-c2ccccc2)nc1C(=O)Nc1ccccc1 | active: -54.9% |
| CCOC(=O)Cn1c(=N)n(CCOc2cccc(C)c2)c2ccccc21 | inactive: -2.84% |
| COc1cc(Nc2c3c(nc4ccccc24)CCCC3)cc(OC)c1OC | inconclusive: -31.2% |
| Clc1ccc(CON/C=N/c2ncnc3sccc23)c(Cl)c1 | inconclusive: -40.4% |
| Nc1ccc(C(=O)N2CCN(S(=O)(=O)c3ccc(Cl)cc3)CC2)cc1[N+](=O)[O-] | inactive: -21.1% |
| C=CC[C@H]1Cc2c(cccc2[N+](=O)[O-])[C@H](CC=C)N1 | inactive: -13.8% |
| COc1ccc(-c2csc(-c3cccs3)n2)cc1OC | inconclusive: -47.2% |
| CCN1CCN(Cc2cccc(Oc3ccc(Cl)cc3)c2)CC1 | inactive: -27.2% |
| COc1ccc(-c2cc(CNc3nc(NCc4ccccc4OC)nc4ccsc34)on2)cc1 | inactive: 0% |
| CN(C)c1ccc(/C=N/N2C(=S)SC(C)(C)C2N(O)C(=O)Nc2ccc([N+](=O)[O-])cc2)cc1 (stereo not given) | inconclusive: -48.2% |
| COc1ccccc1NCC(=O)c1ccc(Cl)cc1 | inconclusive: -34.7% |
| Cc1c(NC(=O)c2ccccc2NC(=O)c2ccccc2)cccc1C(=O)O | inactive: -8.64% |

| Structure (SMILES) | activity change |
| --- | --- |
| Cc1ccc(NC(=O)CNc2cccc(S(=O)(=O)N3CCCCC3)c2)cc1F | inconclusive: -40.3% |
| COc1cccc(OCC(O)CNC(=O)c2oc3c(C)c(C)ccc3c2C)c1 (stereo not given) | inconclusive: -44.4% |
| CCN1CCSc2ccc(C(=O)NCc3ccccc3Br)cc21 | inconclusive: -38.1% |
| CC(C)CC(COCc1ccc([N+](=O)[O-])cc1)N1CCN(C(=O)c2ccc(C(F)(F)F)cc2)CCC1=O (stereo not given) | inconclusive: -49.2% |
| CC(Cc1ccco1)NC(=O)c1ccc(C(F)(F)F)cc1 (stereo not given) | inconclusive: -38.2% |
| Cc1[nH]c2ccc(F)cc2c1CCN(Cc1ccncc1)C(=S)Nc1ccc(F)cc1 | inconclusive: -31.9% |
| CN1CCN(C2=C(Cl)C(=O)N(c3ccc(Cl)c(Cl)c3)C2=O)CC1 | inconclusive: -37.5% |
| Cc1nn(-c2ccc(F)cc2)c(C)c1NS(=O)(=O)c1ccc2ccccc2c1 | inconclusive: -47.9% |
| CN(/N=C/c1cccc(Br)c1)C1=NS(=O)(=O)c2ccccc21 | inconclusive: -35.1% |
| CCN(CC)CCNC(=O)c1ccc(NC(=O)c2ccccc2-c2ccc(C(F)(F)F)cc2)cc1 | active: -66.9% |
| O=C(c1ccc(Cl)c(S(=O)(=O)N2CCc3ccccc32)c1)N1CCN(c2ccccc2O)CC1 | active: -73.2% |
| CS(=O)(=O)N(CC(=O)Nc1cc(Cl)ccc1Cl)c1ccccc1Cl | inconclusive: -33.8% |
| COc1ccc(CN2C[C@]3(CO)O[C@@H](CO)C[C@@H]3S2(=O)=O)cc1 | inactive: 4.42% |
| O=C(NCCN1CCC(n2c(=O)[nH]c3ccccc32)CC1)C(c1ccccc1)c1ccccc1 | active: -79.7% |
| CCOc1ccc(C2C(C#N)=C(C)NC3=C2C(=O)c2ccccc23)cc1 (stereo not given) | inactive: 7.39% |
| O=C(Nc1nc(-c2ccco2)c(-c2ccco2)s1)C1CCC1 | inconclusive: -36% |
| O=C(/C=C/c1ccncc1)c1ccc2c(c1)OCCO2 | active: -97.6% |
| COc1ccc(N2CCN(C(=O)COC(=O)CSc3ccccc3)CC2)cc1 | inactive: 4.5% |
| O=C(c1c(F)cccc1F)N(Cc1ccccc1)Cc1ccccc1 | inconclusive: -38.7% |
| CCCCOC(=O)C[N+](C)(C)CCOC1CC2CCC1(C)C2(C)C (stereo not given) | inconclusive: -46.4% |
| CCN(c1ccccc1)S(=O)(=O)c1ccc(Cl)c(NC(=O)CN2C(=O)NC3(CCCC3)C2=O)c1 | inconclusive: -44.1% |
| COc1cc2c(c(OCC(=O)NC(C)C)c1)C(=O)O[C@@H](C)CCCC(=O)CCCCC2 | inconclusive: -49.9% |

| Structure (SMILES) | activity change |
| --- | --- |
| COc1ccccc1C(CNC(=O)C(C)(C)Oc1ccc(Cl)cc1)N1CCCC1 (stereo not given) | inconclusive: -41.6% |
| COc1ccc(CCn2c(=N)c(C(=O)NC3CCCC3)cc3c(=O)n4ccccc4nc32)cc1 | active: -82.7% |
| Cc1onc(-c2ccccc2)c1C(=O)Nc1ccc(OC(C)C)cc1 | inconclusive: -32.9% |
| COc1ccc(CN(C)C(=O)/C=C/c2ccc(S(=O)(=O)N3CCCCCC3)cc2)cc1 | inconclusive: -35.8% |
| COc1ccc(-c2c(C)[nH]n3c(=O)c(Cc4ccccc4)c(C)nc23)cc1OC | inactive: -14.7% |
| O=C(Cc1ccc(F)cc1)N1CCC(CC2CC(c3ccc(Cl)cc3)=NO2)(C(=O)NCC2CCCCC2)CC1 (stereo not given) | active: -55.2% |
| COc1ccc(CN(C)C(=O)COC(=O)c2c(-c3ccccc3Cl)noc2C)cc1 | inconclusive: -34% |
| CCOc1ccc(NC(=O)CS(=O)(=O)c2cn(CC)c3ccccc23)cc1 | inconclusive: -33.5% |
| Cc1ccc(C(=O)NCc2ccc3c(c2)OCO3)cc1C | inconclusive: -30.7% |
| CC1(C)CC(N=c2cc(-c3ccccc3)oc3ccc(Cl)cc23)CC(C)(C)N1 | active: -102% |
| c1csc(-c2nc(NCC3CCCO3)c3ccccc3n2)c1 (stereo not given) | active: -90.4% |
| COc1cccc(Nc2nc3ccccc3nc2NS(=O)(=O)c2cccs2)c1 | inconclusive: -31% |
| CCOC(=O)c1c(NC(=O)Cn2cnc([N+](=O)[O-])n2)sc2c1CCC(C)C2 (stereo not given) | inconclusive: -32.9% |
| Cc1ccc(NC(=O)Cc2nnc(SCC(=O)NC3CCCC3)n2C)cc1 | inactive: 16.9% |
| N#CC(c1ccc(Cl)cc1)c1ccc2c(C(F)(F)F)cc(C(F)(F)F)nc2n1 (stereo not given) | active: -105% |
| Fc1ccc2[nH]c3c(N4CCN(c5ccccc5)CC4)ncnc3c2c1 | active: -55.4% |
| O=C(NCc1ccco1)c1cc2cc3ccc(Cl)cc3nc2o1 | inactive: 18.6% |
| COc1ccc(-c2oc(/N=C/N3CCOCC3)c(C#N)c2-c2ccc(OC)cc2)cc1 | inconclusive: -30.4% |
| Cc1ccc(C(=O)NC2CCN(CC(=O)Nc3cccc([N+](=O)[O-])c3)CC2)cc1 | inactive: -6.09% |
| Clc1ccc2c(c1)-c1ccccc1C1=NCCN12 | active: -103% |
| COc1ccc(-c2[nH]n(-c3ccc([N+](=O)[O-])cc3)c(=O)c2C=NCc2ccncc2)cc1 | inconclusive: -31.6% |
| Nc1ccc(-c2nc3c(Cl)cc(N)cc3[nH]2)cc1 | inconclusive: -30.9% |

| Structure (SMILES) | activity change |
| --- | --- |
| COc1cc(NC(=O)CSc2nc3ccccc3c(=O)n2C)ccc1NC(=O)c1ccco1 | inconclusive: -49.9% |
| Cc1cc2c(cc1S(=O)(=O)N1CCN(c3cccc(C)c3C)CC1)OCCN2C | inactive: -6.98% |
| O=C(Oc1cccc(OC(=O)c2ccco2)c1)c1ccco1 | inactive: -0.0733% |
| CC(C)CCNC(=O)c1onc(CSc2ccncc2)c1C(=O)NCCC(C)C | inconclusive: -42.4% |
| COCCN=c1scc(-c2cc(OC)c(OC)c(OC)c2)n1/N=C/c1c(C)[nH]c2ccccc12 | inconclusive: -35% |
| CCN(CC)S(=O)(=O)c1ccc(OC)c(NC(=O)c2ccc([N+](=O)[O-])cc2)c1 | inconclusive: -31% |
| C(=C\c1ccccc1)/CN1CCN(C(c2ccnc3ccccc23)c2nnnn2C2CCCCC2)CC1 (stereo not given) | inconclusive: -30.9% |
| CCN(CC)C(=O)C1=C(C)N(Cc2ccccc2)C(=O)C(CC(=O)NCc2ccco2)C1 (stereo not given) | inactive: -6.96% |
| O=C(/C=C/c1ccco1)Nc1sc2c(c1C(=O)O)CCC2 | inactive: -10.3% |
| Cc1ccc(C)c(S(=O)(=O)N2CCN(C(=O)Cc3sc(C)nc3-c3ccc(F)cc3)CC2)c1 | inactive: -25.1% |
| OCCNc1nc(-c2ccccc2)nc2ccccc12 | inconclusive: -37.6% |
| Cc1nn(C)c(C(=O)NNC(=S)Nc2ccc(F)cc2)c1[N+](=O)[O-] | inactive: 0% |
| CCN(CC)S(=O)(=O)c1cccc(NC(=O)CNc2cccc(S(=O)(=O)N3CCOCC3)c2)c1 | inactive: -6.67% |
| COc1ccc(Cc2nc3ccc(C(=O)NCc4cccc(C)n4)cc3o2)cc1OC | inconclusive: -33.6% |
| C/C(=N\N=C(N)N)c1ccc(Cl)cc1Cl | active: -92.5% |
| CCCc1nc2ccccc2c(=O)n1CCc1ccccc1 | inactive: -3.68% |
| COc1ncnc2c1cnn2-c1ccccc1 | inconclusive: -42.5% |
| CN(C)CCCN(C(=O)c1ccc(S(=O)(=O)N2CCc3ccccc3C2)cc1)c1nc2ccc(F)cc2s1 | active: -98.4% |
| CCCCCC(O)(c1ccc(OCC)cc1)C(CN1CCOCC1)c1ccccc1 (stereo not given) | active: -85.3% |
